Experimental data from PubChem BioAssay AID488969 (Vanderbilt High Throughput Screening Facility, 2010).
In all, about 110,000 compounds were measured (“z-score”: median about -0.1, highest 2% from about 2 on). Some of the results follow.

Each molecule was assayed against Metabotropic glutamate receptor 8 (Rattus norvegicus) (UniProt P70579) (assay: mGluR8 Gi/Go-coupled signaling modulation – cell-based, rat, thallium flux, HTS, primary screen (AID 488969)). Details: HEK293 rat mGluR8, GIRK (G protein-gated inwardly rectifying potassium channel) thallium flux, FluoZin2; at 10 µM; stronger effect = higher value; submaximal glutamate (EC20) added with thallium.
Sequence of UniProt P70579 (P70579 whole entry, looked up): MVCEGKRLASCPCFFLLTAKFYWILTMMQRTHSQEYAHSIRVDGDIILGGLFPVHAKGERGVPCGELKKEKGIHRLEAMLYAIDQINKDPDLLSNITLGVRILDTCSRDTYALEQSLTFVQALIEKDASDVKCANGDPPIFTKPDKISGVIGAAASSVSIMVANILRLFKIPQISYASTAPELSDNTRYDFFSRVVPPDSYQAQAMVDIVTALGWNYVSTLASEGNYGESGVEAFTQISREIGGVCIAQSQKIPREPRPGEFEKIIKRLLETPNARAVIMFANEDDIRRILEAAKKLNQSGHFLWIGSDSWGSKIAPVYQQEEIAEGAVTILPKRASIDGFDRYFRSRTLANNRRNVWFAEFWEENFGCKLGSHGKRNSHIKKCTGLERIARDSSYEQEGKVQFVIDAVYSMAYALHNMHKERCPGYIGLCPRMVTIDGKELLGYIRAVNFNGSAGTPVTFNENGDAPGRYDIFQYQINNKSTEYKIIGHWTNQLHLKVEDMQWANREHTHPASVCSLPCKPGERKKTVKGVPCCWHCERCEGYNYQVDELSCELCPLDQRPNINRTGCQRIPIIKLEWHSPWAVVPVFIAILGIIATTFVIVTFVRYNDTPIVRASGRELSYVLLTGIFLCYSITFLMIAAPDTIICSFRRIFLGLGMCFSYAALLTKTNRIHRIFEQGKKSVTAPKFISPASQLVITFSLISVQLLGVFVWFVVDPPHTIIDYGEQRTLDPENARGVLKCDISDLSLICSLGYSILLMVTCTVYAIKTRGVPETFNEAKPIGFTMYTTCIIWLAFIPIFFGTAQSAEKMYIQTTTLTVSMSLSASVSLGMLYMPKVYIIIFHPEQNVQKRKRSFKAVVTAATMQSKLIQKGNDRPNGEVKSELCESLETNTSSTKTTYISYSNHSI

Compared with `C=C(C)c1cccc(C(C)(C)NC(=O)N2CCCC(C(N)=O)C2)c1` (centres undefined), `O=C(Nc1ccccc1C(F)(F)F)N1CCCCCC1` is higher in z-score: -0.257 for the first, -0.254 for the second.

Going from `O=c1cc(CSc2nnc(COc3ccc(Cl)cc3)o2)c2ccccc2[nH]1` to `Cc1ccc(F)cc1NC(=O)Cc1nn(C)c(=O)c2ccccc12`, the z-score falls from -0.0764 to -0.0938.

Compared with `CC(C)COC(=O)C1[C@H]2C(=O)N(Cc3cccs3)C[C@]23C=C[C@H]1O3` (some centres undefined), `CC(C)CN(C(=O)COC(=O)Cn1cnc2ccccc2c1=O)C1CCS(=O)(=O)C1` (centres undefined) is lower in z-score: 0.13 for the first, -0.415 for the second.

Compared with `CCC(=O)Nc1ccc(/C(C)=N/NC(=O)c2c(-c3ccccc3Cl)noc2C)cc1`, `Cc1onc(-c2ccccc2)c1C(=O)NNC(=S)NC(=O)c1ccc(F)cc1` is higher in z-score: 0.0303 for the first, 0.724 for the second.

Going from `CS(=O)(=O)N1CCC(C(=O)Nc2ccc3c(c2)OCO3)CC1` to `COc1ccc(CCNC(=O)C2CCN(S(=O)(=O)c3ccc(Cl)cc3)CC2)cc1OC`, the z-score rises from -0.646 to -0.192.

Going from `Cc1ccccc1OCc1nnc(SCC(=O)N2CCc3ccccc32)n1C` to `CC(=O)Nc1ccc(-c2nnc(SCC(=O)NCc3ccco3)n2C)cc1`, the z-score rises from -0.183 to 0.141.

First: Cn1sc(NC(=O)c2ccccc2Cl)nc1=O
Second: O=C(Nc1nc(-c2ccccc2Cl)cs1)c1cccnc1
The z-score of the first is higher: 0.19 for the first, -0.0423 for the second.

First: O=C(CSc1nc2scc(-c3ccco3)c2c(=O)n1-c1ccccc1)NCC1CCCO1 (centres undefined)
Second: COC(=O)Cn1ncc2c3ccccc3n(Cc3ccccc3)c2c1=O
The z-score of the first is lower: -1.16 for the first, -0.163 for the second.

First: Cc1ccc(-c2ccc(C3C(C#N)=C(N)Oc4n[nH]c(C)c43)o2)cc1 (centres undefined)
Second: COc1ccc(/C=C(/C#N)C(=O)Nc2cc(C)ccc2C)cc1C(=O)O
The z-score of the first is higher: 0.0977 for the first, -0.524 for the second.

Going from `CCOc1ccc(NS(=O)(=O)c2ccc(OCC(=O)N3CCCC3)cc2)cc1` to `O=C(c1ccc2snnc2c1)N1CCCCC1`, the z-score rises from -0.177 to 0.443.

Compared with `O=C(COC(=O)CC12CC3CC(CC(C3)C1)C2)Nc1ncc(Cl)cc1Cl`, `CSCCC(NC(=O)c1ccc([N+](=O)[O-])cc1Cl)C(=O)OCC(=O)NC1CCCC(C)C1C` (centres undefined) is lower in z-score: 0.372 for the first, -0.358 for the second.

Going from `COCCN(C(=O)Nc1ccccc1)C(C)c1cccnc1` (centres undefined) to `CCc1cccc(C)c1NC(=O)CNCc1ccccc1`, the z-score rises from -0.368 to -0.195.

Compared with `CC1(C)Cc2c(oc3ncn4ncnc4c23)CO1`, `COC(=O)c1ccc(-n2c(C)cc(C(=O)COC(=O)CC3Sc4ccccc4NC3=O)c2C)cc1` (centres undefined) is higher in z-score: -0.344 for the first, -0.277 for the second.

Going from `CC(=O)N/C(=C\c1ccc(F)cc1)C(=O)N(C)C` to `Cc1ccc(C(=O)O)cc1NC(=S)NC(=O)c1ccc([N+](=O)[O-])cc1Cl`, the z-score falls from -0.0961 to -0.348.

With `O=C(Nc1nnc(SCc2ccccc2)s1)c1cccc([N+](=O)[O-])c1` the z-score was 0.0193.
